According to PubChem BioAssay (Tox21):
Values joined by “and” are separate entries in the source; they are usually repeats but may differ in a detail not shown here. Equal entries are not always repeated. This list was built around the results that the source calls inconclusive (neither active nor inactive); the mix of calls is not that of the screen. Potencies of inconclusive entries are doubtful fits and often do not repeat. Active and inactive are the calls of the source. The call rests on the fitted dose curve; in most records, active means well fitted cell-killing curve with a large enough effect in the repeat runs; inconclusive means weak or mixed curves, or effect the other way; inactive means flat fitted curve, though single readings scatter.

Assay: Caspase-3/7 induction in HepG2 cells by small molecules, qHTS cell viability counter screen (AID 1346981); further: nearly all actives have a fitted effect of over 30% in size
Details: CellTiter-Fluor fluorescence, 17 h; series mostly up to 92.4 µM; activity change, negative = cytotoxicity: at the top concentration
Excerpt: U.S. Tox21 Program National Center for Advancing Translational Sciences [NCATS] NIH Chemical Genomics Center [NCGC] U.S. Environmental Protection Agency [EPA] National Institutes of Environmental Health Sciences [NIEHS] National Toxicology Program [NTP] U.S. Food and Drug Administration [FDA] Tox21 Assay Overview: Apoptosis is a process of programmed cell death and plays a central role in the development of multicellular organisms. It is a highly regulated process and induces cell death by activating caspases, which are the members of cysteine aspartic acid-specific protease (caspase) family. Caspases involved in apoptosis are classified by their mechanism of action as initiator caspases (caspase-2, -8, -9 and -10) and executioner caspases (caspase-3, -6, and -7). Inhibition of apoptosis results in number of cancers, autoimmune diseases, inflammatory diseases and viral infection. To identify small molecule compounds that induce apoptosis, a homogeneous, luminescent Caspase-Glo 3/7 assay was used. Wild type HepG2 cells were used to screen Tox21 libraries for identifying caspase-3/7 activity inducers. Also cytotoxicity of the compounds was tested in parallel by measuring the cell viability using CellTiter-Fluor assay system in the same wells.
Tox21 Assay Protocol Summary: HepG2 cells were dispensed at 2,000 per well in 5uL of culture medium into white solid bottom 1536-well plates (Corning Life Sciences, Corning, NY) using a Multidrop Combi (Thermo Scientific, Waltham, MA) dispenser. The assay plates were incubated at 37 C and 5% CO2 for 5hr, and then 23nL of compounds dissolved in DMSO and positive control were transferred using a Pintool station ([…], San Diego, CA). The assay plates were incubated at 37C and 5% CO2 for 17hr. For cytotoxicity read, after 16hr incubation at 37C, 1uL CellTiter-Fluor reagent (Promega Corporation, Madison, WI) was added to each well of the assay plates using Flying Reagent Dispenser (FRD, Aurora Discovery, San Diego, CA). After 1hr incubation at 37C and 5% CO2, the fluorescence signal was quantified using a ViewLux plate reader (PerkinElmer, Shelton, CT).
On the % scale 0 is the no-effect control and ±100 the full control effect; potency means the concentration at half of the fitted maximal effect; tags describe the fitted curve by direction and shape.

Compound	Potency	activity change, negative = cytotoxicity
COC(CC(C)CCCC(C)(C)O)OC (stereo not given)	inconclusive: 27.3 µM [rising, single point]	
Cc1ccc(S(N)(=O)=O)cc1	inconclusive: 27.1 µM [cytotoxic, single point]	
CCCCCCCCCC=O	inconclusive: 21.7 µM [rising, partial curve]	
Cc1ccc(S(=O)(=O)O)cc1	inconclusive: 27.3 µM [rising, partial curve, poor fit]	
c1ccc2cc3c4ccccc4c4ccccc4c3cc2c1	inconclusive: 5.47 µM [cytotoxic, full curve]	
O=C1OC(c2ccc(O)cc2)(c2ccc(O)cc2)c2ccccc21	inconclusive: 48.6 µM [cytotoxic, partial curve]	
CC1=C(C=O)C(C)(C)CCC1	inconclusive: 27.3 µM [rising, partial curve, poor fit]	
O=c1c(-c2ccc(O)cc2)coc2cc(O)cc(O)c12	inconclusive: 60.1 µM [cytotoxic, single point] and inconclusive: 68.6 µM [cytotoxic]	
N[C@@H](Cc1cc(I)c(Oc2cc(I)c(O)c(I)c2)c(I)c1)C(=O)O	inactive	
COc1cc(C)ccc1O	inconclusive: 30.6 µM [rising, partial curve, poor fit]	
CN(C)c1ccc(N=NS(=O)(=O)O)cc1	active: 25 µM	
CC(=O)c1ccc([N+](=O)[O-])cc1		inactive: -0.821%
C#C[C@]1(O)CC[C@H]2[C@@H]3CCC4=Cc5oncc5C[C@]4(C)[C@H]3CC[C@@]21C	inconclusive: 68.6 µM [cytotoxic]	
N#[N+]c1ccc2c(S(=O)(=O)[O-])cccc2c1O		inactive: -7.16%
OCCOCCOCCOCCOCCO	inconclusive: 62.3 µM [cytotoxic, single point]	
C/C=C/C=C/COC(=O)C(C)C	inconclusive: 27.3 µM [cytotoxic, single point]	
O=[N+]([O-])c1ccc(O)c2ncccc12	inconclusive: 33.5 µM [cytotoxic, single point]	
C[C@@]12C(=O)OC(=O)[C@]1(C)C1CCC2O1	active: 2.98 µM	
CC(=O)CC(=O)Nc1ccc2[nH]c(=O)[nH]c2c1	inconclusive: 24.3 µM [rising, partial curve]	
COC(=O)[C@H]1[C@H]2C[C@@H]3c4[nH]c5cc(OC)ccc5c4CCN3C[C@H]2C[C@@H](OC(=O)/C=C/c2ccc(O)c(OC)c2)[C@@H]1OC	inconclusive: 26.6 µM [cytotoxic, partial curve]	

Compound	Potency	activity change, negative = cytotoxicity
O=C(NOCC1CC1)c1ccc(F)c(F)c1Nc1ccc(I)cc1Cl	active: 26.6 µM	
CN1CCc2cccc3c2[C@H]1Cc1ccc(O)c(O)c1-3	active: 61.8 µM and active: 25.6 µM and inconclusive: 29.8 µM [cytotoxic, single point]	
CC(=O)[C@H]1CC[C@H]2[C@@H]3CCC4=CC(=O)CC[C@]4(C)[C@H]3CC[C@]12C	inconclusive: 76.5 µM [cytotoxic, partial curve, poor fit]	
S=c1[nH]c2ccccc2s1	inconclusive: 24.3 µM [rising, partial curve, poor fit]	
CC(C)(C)C(=O)C1C(=O)c2ccccc2C1=O	active: 60.5 µM and inconclusive: 68.6 µM [cytotoxic, single point]	
Cc1ccc(C(=O)c2cc(O)c(O)c([N+](=O)[O-])c2)cc1	active: 43.3 µM and inconclusive: 33.5 µM [cytotoxic, single point]	
CN1C[C@H](C(=O)N[C@]2(C)O[C@@]3(O)[C@@H]4CCCN4C(=O)[C@H](Cc4ccccc4)N3C2=O)C[C@@H]2c3cccc4[nH]cc(c34)C[C@H]21	active: 26.6 µM	
O=c1cc(-c2ccccc2)oc2cc(O)cc(O)c12	active: 54.5 µM	
Nc1ccccc1O	inconclusive: 67.7 µM [cytotoxic]	
CC(C)n1nc(-c2cc3cc(O)ccc3[nH]2)c2c(N)ncnc21	inconclusive: 0.531 µM [cytotoxic, full curve]	
O=c1cc(-c2ccccc2)oc2ccc3ccccc3c12	inconclusive: 17.2 µM [cytotoxic, partial curve]	
COC(=O)c1c(C)cc(O)c(C)c1O		inactive: 11.7%
Nc1ccc(N)c(Cl)c1	active: 68.5 µM and inconclusive: 68.6 µM [cytotoxic, single point]	
CCc1nc(N)nc(N)c1-c1ccc(Cl)cc1	inconclusive: 69.6 µM [cytotoxic] and inconclusive: 68.6 µM [cytotoxic]	
CCCCC1=NC2(CCCC2)C(=O)N1Cc1ccc(-c2ccccc2-c2nn[nH]n2)cc1	inconclusive: 33.5 µM [cytotoxic, single point]	
CC(C)OC(=O)c1cc(C(=O)OC(C)C)cc([N+](=O)[O-])c1	inconclusive: 27.9 µM [cytotoxic, single point]	
CC(C)(C)NC(=O)[C@@H]1CN(Cc2cccnc2)CCN1C[C@@H](O)C[C@@H](Cc1ccccc1)C(=O)N[C@H]1c2ccccc2C[C@H]1O	inconclusive: 40.5 µM [cytotoxic, partial curve]	
CC(C)C=O		inactive: 2%
CC[C@@]1(c2ccccc2)NC(=O)N(C)C1=O		inactive: 7.22% [at 42.5 µM]
CCOC(=O)c1ccccc1C(=C1C=C(Br)C(=O)C(Br)=C1)c1cc(Br)c(O)c(Br)c1	inconclusive: 51.3 µM [cytotoxic, single point]	
